# The list shows a part of the results. At the low end of the ranking the order means little.
# Tested on: T1, GST-NbGlk1(82-244)
# T1 sequence: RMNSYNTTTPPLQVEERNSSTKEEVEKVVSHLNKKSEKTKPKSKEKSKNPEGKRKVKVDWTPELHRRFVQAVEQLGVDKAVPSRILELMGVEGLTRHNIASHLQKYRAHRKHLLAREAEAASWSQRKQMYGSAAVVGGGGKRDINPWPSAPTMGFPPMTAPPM
# Experiment: protein-binding microarray;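 also: rank-based score ranging −0.5 to +0.5 with E above 0.45 taken as significant binding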
# Conditions: NbGlk1 is a Golden2-like transcription factor of Nicotiana benthamiana; high values mean tight binding; most listed sequences are background and not binding sites; double strand, one strand shown
row,Sequence,binding signal
1,AAAGTACG,0.0564 E-score
2,ATTGTCGA,0.146 E-score
3,CAAAAGGA,0.0725 E-score
4,ATTAGAAC,0.00223 E-score
5,AGTGAATA,0.0746 E-score
6,AATAGAGA,0.257 E-score
7,CACATGGA,-0.0277 E-score
8,CAATAGTA,0.0816 E-score
9,ATCCCACG,0.0503 E-score
10,AGGGAGTA,-0.0612 E-score
11,AGCTGGCA,-0.112 E-score
12,AACATCCC,-0.0434 E-score
13,ATGAAAGG,-0.185 E-score
14,CACCCCGC,-0.0796 E-score
15,ACCGACGG,-0.298 E-score
16,ACCGAATA,0.152 E-score
17,ATCACCAG,0.0973 E-score
18,ACGGATGC,-0.1 E-score
19,AACCGGGG,-0.18 E-score
20,CACGCGAC,-0.0712 E-score
21,ATGTATAC,0.133 E-score
22,ACTTGCCC,-0.225 E-score
23,ACCTGACG,-0.241 E-score
24,AAGGGGAG,-0.0864 E-score

row,Sequence,binding signal
1,AGATCGGC,0.0957 E-score
2,CAGACAGA,-0.0531 E-score
3,AAAAGCAC,0.0351 E-score
4,ACCTGATC,0.033 E-score
5,ATGGCTCC,-0.141 E-score
6,ACAAGCTC,-0.179 E-score
7,AATCGCGA,0.376 E-score
8,ATCCAGAT,0.364 E-score
9,ACGCCACC,-0.152 E-score
10,ATTGATAG,0.135 E-score
11,ATCTCCGA,0.311 E-score
12,AACAAATA,0.197 E-score
13,AAACTTGC,-0.026 E-score
14,AAGCCCCT,-0.272 E-score
15,ATGTAGTG,-0.00293 E-score
16,ATTAGCCA,-0.0468 E-score
17,ACTCGAAA,0.0429 E-score
18,AATGGGCC,-0.28 E-score
19,CACAATGG,-0.0952 E-score
20,ATATGCTA,0.224 E-score
21,ATCATCTG,0.16 E-score
22,AATCTCAA,0.421 E-score
23,ATTTATCG,0.184 E-score
24,ACGGGCCA,-0.235 E-score

row,Sequence,binding signal
1,AAGCACCT,-0.188 E-score
2,AAATATGA,0.226 E-score
3,AACCTTCT,-0.234 E-score
4,AGCGAGCA,-0.0448 E-score
5,CACGAAAG,-0.0933 E-score
6,AGAGCCCT,-0.272 E-score
7,CACGGTCG,-0.166 E-score
8,CACGAGTC,-0.0598 E-score
9,ATGTAGCG,-0.233 E-score
10,ACTGCCCC,-0.196 E-score
11,ACGAGGTA,-0.0641 E-score
12,AACCGCCT,-0.248 E-score
13,AGGAGATG,-0.0561 E-score
14,ATCGGGTC,-0.0136 E-score
15,AAGGCGTA,-0.12 E-score
16,ATATGACA,0.0921 E-score
17,ACTTCATC,-0.181 E-score
18,CAAACCTA,0.0926 E-score
19,ATATCTCA,0.389 E-score
20,AAGTAAGG,-0.0411 E-score
21,ATACTGAA,0.116 E-score
22,AGTGCGGA,-0.000344 E-score
23,ACTGTTGC,-0.223 E-score
24,AGAGGGAT,0.0446 E-score

row,Sequence,binding signal
1,AGAAGTGA,-0.0712 E-score
2,AAGAGCCT,-0.202 E-score
3,ATCCGTGA,0.236 E-score
4,AGCGGACC,-0.246 E-score
5,AAGGTAGG,-0.0722 E-score
6,AAATGCTC,-0.086 E-score
7,AATCACGC,0.256 E-score
8,AGGGTACC,-0.332 E-score
9,ACCAATGA,-0.00998 E-score
10,AGTGATGA,0.0264 E-score
11,ATGAAATC,0.452 E-score
12,ATTTCCCC,0.333 E-score
13,AAGGGATT,0.318 E-score
14,ATCTCAAT,0.245 E-score
15,ATCGCAAG,0.198 E-score
16,ACAAGGCC,-0.223 E-score
17,ACCACATA,0.0346 E-score
18,AATTTGGT,0.1 E-score
19,ACAATTAC,0.184 E-score
20,ATCTAGAA,0.259 E-score
21,AGAACTGC,-0.0745 E-score
22,ACTGCGTA,0.0927 E-score

# Reference: article PMC5836133
